# This is one part of the list.
# Key:
# Assay in all cases: glycan array binding signal (z-score within array); higher = stronger binding
# Conditions in all cases: glycan notation: IUPAC condensed, linker removed
# [1] = target: Gal(b1-4)GlcNAc(b1-3)Gal(b1-4)GlcNAc(b1-3)[Gal(b1-4)GlcNAc(b1-3)Gal(b1-4)GlcNAc(b1-6)]GalNAc
# Method in brief: (§1)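 The Consortium for Functional Glycomics database supplied 3228 glycan arrays, of which those lacking an available protein sequence were dropped. The binding signal, a within-array Z-score, was averaged across arrays of the same protein sequence and across linkers. Negative scores can be read as non-binding.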
# [2] = target: Gal(b1-4)GlcNAc(b1-3)Gal(b1-4)GlcNAc(b1-6)[Gal(b1-3)]GalNAc
# Method in brief: as §1
# [3] = target: Gal(b1-4)GlcNAc(b1-3)Gal(b1-4)[Fuc(a1-3)]GlcNAc(b1-3)Gal(b1-4)[Fuc(a1-3)]GlcNAc
# Method in brief: as §1
# [4] = target: Gal(b1-4)GlcNAc(b1-3)GalNAc
# Method in brief: as §1
# [5] = target: Gal(b1-4)GlcNAc(b1-3)[Fuc(a1-3)GlcNAc(b1-6)]Gal(b1-4)Glc
# Method in brief: as §1
# [6] = target: Gal(b1-4)GlcNAc(b1-3)[Gal(b1-4)GlcNAc(b1-6)]Gal(b1-4)GlcNAc
# Method in brief: as §1
# [7] = target: Gal(b1-4)GlcNAc(b1-3)[GlcNAc(b1-6)]Gal(b1-4)GlcNAc
# Method in brief: as §1
# [8] = target: Gal(b1-4)GlcNAc(b1-6)Gal(b1-4)GlcNAc
# Method in brief: as §1
# [9] = target: Gal(b1-4)GlcNAc(b1-6)GalNAc
# Method in brief: as §1
# [10] = target: Gal(b1-4)GlcNAc(b1-6)[Gal(b1-3)]GalNAc
# Method in brief: as §1
# [11] = target: Gal(b1-4)GlcNAc(b1-6)[Gal(b1-4)GlcNAc(b1-3)]GalNAc
# Method in brief: as §1
# [12] = target: Gal(b1-4)GlcNAc6P
# Method in brief: as §1
# [13] = target: Gal(b1-6)Gal
# Method in brief: as §1
# [14] = target: Gal3S(b1-3)GalNAc
# Method in brief: as §1
# [15] = target: Gal3S(b1-3)GlcNAc
# Method in brief: as §1
# [16] = target: Gal3S(b1-3)[Fuc(a1-4)]GlcNAc
# Method in brief: as §1
# [17] = target: Gal3S(b1-4)Glc
# Method in brief: as §1
# [18] = target: Gal3S(b1-4)Glc6S
# Method in brief: as §1
# [19] = target: Gal3S(b1-4)GlcNAc
# Method in brief: as §1
# [20] = target: Gal3S(b1-4)[Fuc(a1-3)]Glc6S
# Method in brief: as §1
# [21] = target: Gal3S(b1-4)[Fuc(a1-3)]GlcNAc
# Method in brief: as §1
# [22] = target: Gal3S(b1-4)[Fuc(a1-3)]GlcNAc6S
# Method in brief: as §1
# [23] = target: Gal3S4S(b1-4)GlcNAc
# Method in brief: as §1
# [24] = target: Gal3S6S(b1-4)GlcNAc
# Method in brief: as §1
# [25] = target: Gal3S6S(b1-4)GlcNAc6S
# Method in brief: as §1
# [26] = target: Gal4S(b1-4)GlcNAc
# Method in brief: as §1
# [27] = target: Gal4S6S(b1-4)GlcNAc
# Method in brief: as §1
# [28] = target: Gal6P(b1-4)GlcNAc
# Method in brief: as §1
# [29] = target: Gal6S(b1-3)GlcNAc
# Method in brief: as §1
# [30] = target: Gal6S(b1-3)GlcNAc6S
# Method in brief: as §1
# [31] = target: Gal6S(b1-4)Glc
# Method in brief: as §1
# [32] = target: Gal6S(b1-4)Glc6S
# Method in brief: as §1
# [33] = target: Gal6S(b1-4)GlcNAc
# Method in brief: as §1
# [34] = target: Gal6S(b1-4)GlcNAc6S
# Method in brief: as §1
# [35] = target: GalNAc(a1-3)Gal
# Method in brief: as §1
# [36] = target: GalNAc(a1-3)GalNAc
# Method in brief: as §1
# [37] = target: GalNAc(a1-3)GalNAc(b1-3)Gal(a1-4)Gal(b1-4)Glc
# Method in brief: as §1
# [38] = target: GalNAc(a1-3)GalNAc(b1-3)Gal(a1-4)Gal(b1-4)GlcNAc
# Method in brief: as §1
# [39] = target: GalNAc(b1-3)Gal
# Method in brief: as §1
# [40] = target: GalNAc(b1-3)Gal(a1-4)Gal(b1-4)GlcNAc
# Method in brief: as §1
# [41] = target: GalNAc(b1-3)Gal(a1-4)Gal(b1-4)GlcNAc(b1-3)Gal(b1-4)Glc
# Method in brief: as §1
# [42] = target: GalNAc(b1-3)Gal(a1-6)Gal(b1-4)Glc
# Method in brief: as §1
# [43] = target: GalNAc(b1-3)GalNAc
# Method in brief: as §1
# [44] = target: GalNAc(b1-3)GlcNAc
# Method in brief: as §1
# [45] = target: GalNAc(b1-4)Gal(b1-4)Glc
# Method in brief: as §1
binder,measurement,setting,value
Banana lectin (Musa acuminata) (protein) MNGAIKVGAWGGNGGSAFDMGPAYRIISVKIFSGDVVDAVDVTFTYYGKTETRHFGGSGGTPHEIVLQEGEYLVGMKGEFGNYHGVVVVGKLGFSTNKKSYGPFGNTGGTPFSLPIAAGKISGFFGRGGDFIDAIGVYLEP,glycan array binding signal (z-score),[1],-0.186
same,glycan array binding signal (z-score),[2],-0.191
same,glycan array binding signal (z-score),[3],-0.175
same,glycan array binding signal (z-score),[4],-0.192
same,glycan array binding signal (z-score),[5],-0.193
same,glycan array binding signal (z-score),[6],-0.194
same,glycan array binding signal (z-score),[7],-0.187
same,glycan array binding signal (z-score),[8],-0.195
same,glycan array binding signal (z-score),[9],-0.192
same,glycan array binding signal (z-score),[10],-0.193
same,glycan array binding signal (z-score),[11],-0.191
same,glycan array binding signal (z-score),[12],-0.196
same,glycan array binding signal (z-score),[13],-0.194
same,glycan array binding signal (z-score),[14],-0.191
same,glycan array binding signal (z-score),[15],-0.191
same,glycan array binding signal (z-score),[16],-0.19
same,glycan array binding signal (z-score),[17],-0.19
same,glycan array binding signal (z-score),[18],-0.192
same,glycan array binding signal (z-score),[19],-0.192
same,glycan array binding signal (z-score),[20],-0.188
same,glycan array binding signal (z-score),[21],-0.19
same,glycan array binding signal (z-score),[22],-0.192
same,glycan array binding signal (z-score),[23],-0.197
same,glycan array binding signal (z-score),[24],-0.192
same,glycan array binding signal (z-score),[25],-0.193
same,glycan array binding signal (z-score),[26],-0.195
same,glycan array binding signal (z-score),[27],-0.195
same,glycan array binding signal (z-score),[28],-0.191
same,glycan array binding signal (z-score),[29],-0.195
same,glycan array binding signal (z-score),[30],-0.195
same,glycan array binding signal (z-score),[31],-0.193
same,glycan array binding signal (z-score),[32],-0.194
same,glycan array binding signal (z-score),[33],-0.191
same,glycan array binding signal (z-score),[34],-0.197
same,glycan array binding signal (z-score),[35],-0.195
same,glycan array binding signal (z-score),[36],-0.193
same,glycan array binding signal (z-score),[37],-0.194
same,glycan array binding signal (z-score),[38],-0.193
same,glycan array binding signal (z-score),[39],-0.17
same,glycan array binding signal (z-score),[40],-0.193
same,glycan array binding signal (z-score),[41],-0.196
same,glycan array binding signal (z-score),[42],-0.194
same,glycan array binding signal (z-score),[43],-0.192
same,glycan array binding signal (z-score),[44],-0.189
same,glycan array binding signal (z-score),[45],-0.195
